Reference: the RNAGym collection of RNA variant scans (doi:10.1073/pnas.2313332121)
Variants at the floor of the assay are shown more often than the library holds them.

B1: TPR 5TU (parent)
chain: GGAUCUUCUCGAUCUAACAAAAAAGACAAAUCUGCCACAAAGCUUGAGAGCAUCUUCGGAUGCAGAGGCGGCAGCCUUCGGUGGCGCGAUAGCGCCAACGUUCUCAACUAUGACACGCAAAACGCGUGCUCCGUUGAAUGGAGUUUAUCAUG

Variants of: B1
Assay: polymerase ribozyme fitness, log enrichment relative to wild type (log ratio); higher = more active; in vitro selection for triplet polymerase activity
In short: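 To select mutant libraries of each subunit of a heterodimeric triplet polymerase ribozyme, built by PCR and transcribed, each was annealed with a biotinylated primer, partner subunit and triplets, then incubated frozen at −7 °C. Extended constructs were gel-excised, captured on streptavidin beads and amplified by RT-PCR, in one round carried out in triplicate. Illumina sequencing of input and output libraries kept genotypes with ≥10 input reads and ≥1 read per output. Fitness is the base-2 logarithm of genotype enrichment relative to wild-type enrichment, from inverse-variance-weighted replicate averages.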

Polymerase ribozyme fitness (log ratio), ≤ -4.2:
A23C U33G G67C G112C U144C
A22G C43G C54A C87A C108A
A21G A29U A30C U55A G59U U101C G124U G141A
A21G A23C U61A C96A G117U G143C
A23U G71A C105G
A22U A30U A39U G59C G83A
A21U G50C C87G U101G C116G A138U
A22C G25C A30U C96G A137G A147U
A21U A22G U53A U56A G71C C99U C125G G152A
A24G A49C
A23C C43U U61A G88C
A22C C69U C87A U90A G117U
A23U C36U A47U G83A
A22U A30U A39U C54A C93U A97U
A22G U45A U55A U56G A107U C125A U148G
A22C C51G U53G C103G
A23U A30G U55A G94A C103A G143A U148A
A23C A66G G67A U135G U139C A142C
A22G G83C U111G A120U
A22G A41C U56A A66U A115G
A23G A30G C54A G83U U101G U104A A106G
A23C A40G C54G C95G C123G G143A
A22C A28U U55A C99U U151C
A24C C76A
A23U G92A G100U U127G G143C A150U
A24C A40U C149G
A24G A28C C43G C54G G59U A119U A137G A138U
A22U C43A G59U G70A C93A
A21G C43A C76U G92U
A21U C99A A106C C116U U135C
A22U C72A G88U A110C U145A
A23U C85A A97U G141C
A23U C38G C54U A89U
A23G A113U A119U
A23U C85A A97U
A23G U33G U56C G80C
A22G C35A C43U G59U G83C U109G U135C
A24C A40U G50C A73U C79U C85G
A24C G58A G86C G136C C149U
A21U A30G A41U C43U U44G C75G C87A A138G A150G
A21U G83U G92U C116A C129G
A21U C32U U77C G141C
A23G U56G G68U U90A C95U C105A G117U
A23G A26C U45G A91U U144C A147C
A23C G50U C87G U104G A110C G141U
A23U A24G U55G U61G A97C C99A C103A
A23G A52G U56C G80A G92U U130G
A21G G86A G88C C96G G100U C116A
A24C C43U G62U C96G A120G U130C
A22U C43U G59U G68A
A22U A28U A30U A47C C57U A150G
A21U U33A C76A U77G C103A A107G G141C
A23C G80C G84A C93A U144A
A22G G50U U56G U78G A106U C108U
A23U C76U C93U C99G
A22C G42A C54A C85U
A23U A47U G58A G70A A89G A98G
A21G U31A G58C C87G C95U A115G A138U
A21U G59C A98U G100A G136A
A21U C79U G84A C93A C105U
A21U C85U G94A A121C A138U
A24C C32G U56A C93U
A21U C57A U82C G100U C103G C118G
A21G A52G U77G C108U A115G U127G
A21G C93U C103G A122C U127G U146A
A23U A30G G50C C75G C93A U104G U146A
A24C A39G A49U G86A C87G A106C G136U A150C
A21G A28U G92U A120U
A24C G71A C87G A113G A147U
A21U A29C C35A A40C G67C A142U
A22C U45A G50C G86A G100A C118U
A23C U78A A91U A138C
A21C U44G C57A C93A C118G G124U
A22G G25U A47C A52U U55G C75U U77C C95U C125U U144G
A23U G81A A91U A106U
A24C A49G C105U
A23U U31C U44G A73C C87G
A21U C75G G88C U135C G140U
A24C U61A G86A U90C A110G U135G
A21G C36A C75A G86C A115G
A22G C27G C43A C76G
A21G A37G U45C C57G A60U C76A C132G G141C G152U
A24C U78A C96U U134C A138C A142G
A24C A29U A40G U55A G71C A98U U135G
A23G G25U G48A A73G C87G A89U C96A G136A
A22C A28C C35U G94C U135C
A23U C87U C103G U109G U135C
A23U C95U C96U
A21G G62A G86C C116G U135C
A23U A28U U44A A47C G50A C93A A98G C116G G126A
A23U G58A G71A C75G G92A A119U U139C
A21U A22U A28C U33G U145G
A22U C32A C57A G58C C93U G133C U151G
A21U A26G G81A
A21U A22U G50A U55G G65U A113C U134A
A23C C63U G74A C85U G100C A107U U148G
A22C A28U G46A G81C C95U C131U A137G
A21G C27G U33G A41C A97G C99G C105G A115U
A21G C75U C76U C85A C93A
A23U C57A G80A U145A
A21U C43A U44G C95A A113C
A24C A39U
A23C G25U G50A U55G G124U
A22G G80A G88U
A24C C38A C76U A120U U151C
A22G C76U C85A C87U G128C G140U
A22G A47U C54U C93G U130A A147C
A23G U78G A89U A91U C93G U102C A115G G126U G141C A142U
A24G A26U U56A C87G C149G G152A
A23G C54U C87A
A23C A41G U55A G59C C85A A97U G140A
A23U C27U A49U C75G U82G G92U A97U G117C C149U
A24C A52U C79A A89G C95G C108G A138U U144G
A24C C38U C54U A73G G83C C85U U102G C105U C116U
A23U C35A G42C C99U G152A
A23G G59A A60G U77A G81A A91C
A23G G58C C75U C76U U78A U111A
A21G C27A C51U C54U G58A
A21U C27A G68A C69U C85A A147G
A22U U56A G67A C96U A150U
A21U A24U C38G U56A A64U C103G U134C
A22U A52G C85A C93U G128C U145A
A22U A39U G42C C76U U78A C85G C116A G117U
A22U C36G G65C A66C C79G G133A
A22U G46C C69A A89U U139C U148C
A22U G34C C35U U55G G58C A73G G126A G141C A150U
A23G C57G C85G C118A G126A
A23U A29C U127A C129A A150U
A22U A66C G84A C116G C149U
A24G A26G G83C U145C
A22G G86U C87G U111C A113U A119U A122U G136A
A23U G50A A52U C87G A89C C96A A137U A142C
A21G A26C A52U C129G U135C
A23G A37G C96U A98G U144A
A23U A41U G48U U55A C57G G88U A107G
A21U A28C G58A C87G C103A A119C
A22C A30G G50C A64C C85U C118G G140C U144C
A21G C76A G88A G126A C131U A147C
A21C U55G G128A
A21U C43U U55A G58A U111A A122C
A22U G50C C54G C75U U102G A107U C116G
A24C C38G U55A G83A G94C A97U G100U C105A
A22G G58C G68C A91C U102G A137C
A23U G67C C76U C87A A106G A137G
A21G U53A G74A A89G G94C C131A
A23G A26U C79G U104G G152A
A23G U55G G59A C79A C87G C99G
A23U C27G C51G G58A G83C C87U C95U A97C C105U A150G
A24C G68A C96U C105U A120G A121U
A22C A24U U33G C85G C105G C108A U144C
A22U C69G G94A C103G U104G U139A
A23G C43U A47G A64C G74A C85A A138C G152A
A23U G46C G50C U55A C69G G88C G92C A142C
A23U G71A
A21U A22C G42C C85G U102G A142U
A22U C27U C36U U55G C57U G74A C95G G100A G140A
A23C C85U A98C C123A
A22C A97U A138C
A23U G46A U61G A91U
A24C A26U G50A C93A C96U C114G C132U
A24G A39C G48U A60C C93G
A23U C27G C57A C85U U90G U101G C118G G141U
A23U A30U C32A A40U U61C G70A G80A G92A U101C C114U
A24C C38U C57A
A23U A60G U61G C87G C131G
A23G A37C A66G C75G C93G
A22G A47C C85A A106G A137C U146G
